A lower IC50 marks a more sensitive line; a limit (>, <) means that the fit lies beyond the doses tested. AUC is the area under the same curve over the 256-fold range up to the top dose, as a fraction; values near 1 show little effect. For some assays here: Where the top dose is marked as inferred, it was derived from the fitted curves, not read from the paper. For some assays here: Where an entry number is given, a second screen of the drug exists; the two often differ.
Legend:
Assay in all cases: Viability of human cancer cell lines after 72 h of drug (GDSC screen)
Thapsigargin = compound: C/C=C(/C)C(=O)O[C@H]1C(C)=C2[C@H]([C@@H]1OC(=O)CCCCCCC)[C@@](C)(OC(C)=O)C[C@H](OC(=O)CCC)[C@@]1(O)[C@H]2OC(=O)[C@@]1(C)O [Thapsigargin]; settings: top dose 0.512 µM; top dose inferred
Procedure: (§1)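 Human cancer cell lines in 384-well plates, medium with 10% serum, drug for 72 h over a 256-fold dose range (nine 2-fold or five 4-fold steps up to the top dose). Adherent lines were fixed and stained with the nucleic acid dye Syto60, suspension lines read with resazurin; signal relative to control wells, capped at 0 and 100%. One two-parameter sigmoid per drug and line, fitted in a mixed model over all curves with the slope shared within a line.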

CMK = compound: Cc1ccc(-c2c(C(=O)CCl)n(CCCO)c3ncnc(N)c23)cc1 [CMK]; settings: top dose 4 µM; top dose inferred
Procedure: as §1

Zibotentan = compound: COc1nc(C)cnc1NS(=O)(=O)c1cccnc1-c1ccc(-c2nnco2)cc1 [Zibotentan]; settings: top dose 20 µM; top dose inferred
Procedure: as §1

(5Z)-7-Oxozeaenol = compound: COc1cc(O)c2c(c1)/C=C/C[C@H](O)[C@H](O)C(=O)/C=C\C[C@H](C)OC2=O [(5Z)-7-Oxozeaenol]; settings: top dose 10 µM; top dose inferred
Procedure: as §1

CP466722 = compound: COc1cc2ncnc(-n3nc(-c4ccccn4)nc3N)c2cc1OC [CP466722]; settings: top dose 16 µM; top dose inferred
Procedure: as §1

CHIR-99021 = compound: Cc1cnc(-c2cnc(NCCNc3ccc(C#N)cn3)nc2-c2ccc(Cl)cc2Cl)[nH]1 [CHIR-99021]
Procedure: as §1

KU-55933 = compound: O=c1cc(-c2cccc3c2Sc2ccccc2S3)oc(N2CCOCC2)c1 [KU-55933]; settings: top dose 10 µM
Procedure: as §1

QL-X-138 = compound: C=CC(=O)Nc1cc(-n2c(=O)ccc3cnc4ccc(-c5cn[nH]c5)cc4c32)ccc1C [QL-X-138]; settings: top dose 10.24 µM; top dose inferred
Procedure: as §1

GSK269962A = compound: CCn1c(-c2nonc2N)nc2cnc(Oc3cccc(NC(=O)c4ccc(OCCN5CCOCC5)cc4)c3)cc21 [GSK269962A]; settings: top dose inferred
Procedure: as §1

Cytarabine = compound: Nc1ccn([C@@H]2O[C@H](CO)[C@@H](O)[C@@H]2O)c(=O)n1 [Cytarabine]; settings: top dose 2 µM
Procedure: as §1

ABT-888 = compound: C[C@]1(c2nc3c(C(N)=O)cccc3[nH]2)CCCN1 [ABT-888]; settings: top dose 5 µM; top dose inferred
Procedure: as §1

ABT-869 = compound: Cc1ccc(F)c(NC(=O)Nc2ccc(-c3cccc4[nH]nc(N)c34)cc2)c1 [ABT-869]; settings: top dose 1.024 µM; top dose inferred
Procedure: as §1

MPS-1-IN-1 = compound: COc1cc(N2CCC(O)CC2)ccc1Nc1cc(Nc2ccccc2S(=O)(=O)C(C)C)c2cc[nH]c2n1 [MPS-1-IN-1]; settings: top dose 20 µM; top dose inferred
Procedure: as §1

[1] = top dose 2.56 µM, screen: GDSC drug entry 154
[2] = top dose 10 µM, screen: GDSC drug entry 1241, top dose inferred
[3] = top dose 2.5 µM, screen: GDSC drug entry 127
[4] = top dose 5 µM, screen: GDSC drug entry 1192

Cell Line	AUC (Thapsigargin)	IC50 (Thapsigargin) [µM]	AUC (CMK)	IC50 (CMK) [µM]	AUC (Zibotentan)	IC50 (Zibotentan) [µM]	AUC ((5Z)-7-Oxozeaenol)	IC50 ((5Z)-7-Oxozeaenol) [µM]	AUC (CP466722)	IC50 (CP466722) [µM]	AUC (CHIR-99021; [1])	IC50 (CHIR-99021; [1]) [µM]	AUC (CHIR-99021; [2])	IC50 (CHIR-99021; [2]) [µM]	AUC (KU-55933)	IC50 (KU-55933) [µM]	AUC (QL-X-138)	IC50 (QL-X-138) [µM]	AUC (GSK269962A; [3])	IC50 (GSK269962A; [3]) [µM]	AUC (GSK269962A; [4])	IC50 (GSK269962A; [4]) [µM]	AUC (Cytarabine)	IC50 (Cytarabine) [µM]	AUC (ABT-888)	IC50 (ABT-888) [µM]	AUC (ABT-869)	IC50 (ABT-869) [µM]	AUC (MPS-1-IN-1)	IC50 (MPS-1-IN-1) [µM]
K5 (thyroid, adherent)	0.859	0.397	0.941	> 4	0.981	> 20	0.066	< 0.0391	0.85	11.3	0.954	> 2.56	0.854	7.4	0.969	> 10	0.809	5.07	0.894	> 2.5	0.821	2.73	0.349	0.0487	0.976	> 5	0.986	> 1.02	0.966	> 20
KARPAS-45 (lymphoblastic leukaemia, suspension)	0.281	0.0087	0.936	> 4	0.989	> 20	0.815	4.38	0.46	0.791	0.992	> 2.56	0.991	> 10	0.865	6.47	0.689	1.95	0.883	1.92	0.884	3.86	0.968	> 2	0.989	> 5	0.982	> 1.02	0.821	9.19
KARPAS-299 (anaplastic large cell lymphoma, suspension)	0.544	0.0412	0.977	> 4	0.989	> 20	0.703	2.08	0.782	5.55	0.979	> 2.56	0.987	> 10	0.971	> 10	0.841	5.45	0.967	> 2.5	0.953	> 5	0.88	1.48	0.984	> 5	0.992	> 1.02	0.489	1.17
KARPAS-422 (B-cell lymphoma, suspension)	0.475	0.0274	0.915	> 4	0.984	> 20	0.802	4.83	0.954	> 16	0.988	> 2.56	0.987	> 10	0.89	> 10	0.498	0.632	0.965	> 2.5	0.953	> 5	0.969	> 2	0.988	> 5	0.988	> 1.02	0.919	> 20
KARPAS-620 (haematopoietic neoplasm, suspension)	0.088	< 0.002	0.88	3.14	0.991	> 20	0.666	1.68	0.625	2.09	0.99	> 2.56	0.977	> 10	0.964	> 10	0.389	0.332	–	–	0.93	> 5	0.99	> 2	0.991	> 5	0.99	> 1.02	0.869	14.1
KCL-22 (chronic myeloid leukaemia, suspension)	0.353	0.0135	0.88	3	0.989	> 20	0.692	1.95	0.691	3.1	0.988	> 2.56	0.974	> 10	0.965	> 10	0.412	0.383	0.987	> 2.5	0.955	> 5	0.727	0.486	0.991	> 5	0.952	> 1.02	0.915	> 20
KE-37 (lymphoblastic leukaemia, suspension)	0.251	0.00768	0.981	> 4	0.99	> 20	0.85	5.01	0.441	0.719	0.988	> 2.56	0.85	4.99	0.959	> 10	0.358	0.288	0.938	> 2.5	0.946	> 5	0.269	0.0334	0.992	> 5	0.993	> 1.02	0.865	11.2
KELLY (neuroblastoma, adherent)	0.483	0.0289	0.989	> 4	0.974	> 20	0.575	0.982	0.798	6.83	0.989	> 2.56	0.88	8.71	0.945	> 10	0.923	> 10.2	0.926	> 2.5	0.446	0.225	0.66	0.332	0.989	> 5	0.974	> 1.02	0.653	3.19
KGN (ovary, adherent)	0.143	< 0.002	0.843	3.78	0.978	> 20	0.564	0.973	0.6	2	0.956	> 2.56	0.863	> 10	0.959	> 10	0.408	0.338	0.675	0.537	0.852	> 5	0.901	> 2	0.98	> 5	0.981	> 1.02	0.863	> 20
KINGS-1 (glioma, adherent)	0.341	0.00972	0.976	> 4	0.977	> 20	0.781	5.86	0.977	> 16	0.98	> 2.56	0.794	6.68	0.94	> 10	0.716	3.35	0.954	> 2.5	0.917	> 5	0.837	> 2	0.975	> 5	0.974	> 1.02	0.943	> 20
KLE (endometrium, adherent)	0.572	0.056	0.868	> 4	0.969	> 20	0.86	> 10	0.775	10.3	0.94	> 2.56	0.889	> 10	0.952	> 10	0.673	2.56	–	–	0.918	> 5	0.937	> 2	0.974	> 5	0.964	> 1.02	0.877	> 20
KM12 (large intestine, adherent)	0.335	0.0107	0.921	> 4	0.985	> 20	0.9	> 10	0.916	> 16	0.956	> 2.56	0.968	> 10	0.978	> 10	0.821	6.63	0.901	> 2.5	0.984	> 5	0.903	> 2	0.985	> 5	0.971	> 1.02	0.839	15.4
KM-H2 (Hodgkin lymphoma, suspension)	0.237	0.00646	0.979	> 4	0.99	> 20	0.894	8.78	0.828	7.86	0.993	> 2.56	0.992	> 10	0.949	> 10	0.8	4.1	0.974	> 2.5	0.958	> 5	0.993	> 2	0.987	> 5	0.989	> 1.02	0.968	> 20
KMOE-2 (acute myeloid leukaemia, suspension)	0.678	0.0946	0.976	> 4	0.99	> 20	0.343	0.241	0.649	2.46	0.99	> 2.56	0.989	> 10	0.861	7.03	0.643	1.52	0.98	> 2.5	0.946	> 5	0.874	1.59	0.986	> 5	0.99	> 1.02	0.81	9.16
KNS-42 (glioma, adherent)	0.276	0.00645	0.931	> 4	0.982	> 20	0.768	4.47	0.871	> 16	0.957	> 2.56	0.935	> 10	0.956	> 10	0.892	> 10.2	0.902	> 2.5	0.861	> 5	0.964	> 2	0.982	> 5	0.981	> 1.02	0.942	> 20
KNS-81-FD (glioma, adherent)	0.857	> 0.512	0.969	> 4	0.976	> 20	0.596	1.25	0.914	> 16	0.971	> 2.56	0.961	> 10	0.937	> 10	0.668	2.23	0.919	> 2.5	0.737	1.93	0.865	> 2	0.974	> 5	0.949	> 1.02	0.971	> 20
KP-N-YN (neuroblastoma, adherent)	0.509	0.0338	0.943	> 4	0.982	> 20	0.489	0.58	0.963	> 16	0.986	> 2.56	0.812	5.98	0.953	> 10	0.912	> 10.2	0.985	> 2.5	0.874	> 5	0.972	> 2	0.985	> 5	0.984	> 1.02	0.959	> 20

Source: the supplement of paper PMC4967469
